A collection of fitness landscapes (doi:10.1016/j.celrep.2020.107928)
Over roughly 81,000 sequences, “one-hybrid fitness for binding parS DNA” has its median near -0.17; the highest 2% begin near 0.51. This is one part of the list.

B1: Caulobacter ParB omega fusion; a variant is named by its letters at X, in order, B8GW30 (parent)
chain: MESVVVGEPGMSEGRRGLGRGLSALLGEVDAAPAQAPGEQLGGSREAPIEILQRNPDQPRRTFREEDLEDLSNSIREKGVLQPILVRPSPDTAGEYQIVAGERAWRAAQRAGLKTVPIMVRELDDLAVLEIGIIENVQRADLNVLEEALSYKVLMEKFERTQENIAQTIGKSXSHVANXMRLLXLPDEVQSYLVSGELTAXHARAIAAAADPVALAKQIIEGGLSVRETEALARKAPNLSAGKSKGGRPPRVKDTDTQALESDLSSVLGLDVSIDHRGSTGTLTITYATLEQLDDLCNRLTRGI

Variants of: B1
Assay: one-hybrid fitness for binding parS DNA (scaled: cognate 1, non-cognate 0); higher = stronger binding
Conditions: with parS DNA site
Outline: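 Fitness is the rescaled log change in variant-to-wild-type read ratio, measured by Illumina sequencing of plasmids before and after bacterial one-hybrid selection. The scale puts cognate at 1 and non-cognate at 0. Selection of Caulobacter ParB libraries, four specificity codons randomised, took place in E. coli USO with a HIS3 reporter, site 19 bp from the promoter, over 48 hours at 37°C on M9-minus-histidine with 0.1 mM IPTG and 5 mM 3-AT.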

one-hybrid fitness for binding parS DNA, 0.438:
RVGY

one-hybrid fitness for binding parS DNA, 0.655:
RFET

one-hybrid fitness for binding parS DNA, 0.968:
RTNG

one-hybrid fitness for binding parS DNA, 0.202:
RVTF

one-hybrid fitness for binding parS DNA, 0.71:
RRIC

one-hybrid fitness for binding parS DNA, ≤ 0.2:
YYPS
HTIY
LPYR
RVPK
LENR
WSHT
QFGS
FWEG
HIAS
LLQY
HDHR
LCRI
VPPH
RVKV
GSEC
AQRG
YVPA
SNNW
SCYN
KRIV
RFVE
ENWV
NWTC
FYHS
ARAG
DMEG
PDRH
QVIF
LEVL
PSAY
TCTF
TNDS
RQYH
PVGP
TTML
LWPT
HFSI
VQRG
RECS
RVAV
TNCS
RTNR
AWPR
SKNN
TVIY
CVVT
NSYL
RLKK
SLSY
AWLT
NCHS
DLPT
YSYP
FYTN
GTSF
GIAC
STLC
WDTC
TAFA
CECS
CLRR
QFSA
TWGS
DSES
EAPN
ECQS
RGSD
YAGS
ATFF
LARK
QRDH
HNCC
SRSA
GDKC
VPTY
RFLR
TSCY
QTLI
SCLC
KTYK
QQDN
SGTR
SRPR
VFPT
ESAP
PSDA
VVTY
NALR
INYC
DTWV
TNPF
FGLC
TVGV
TLGW
DAMY
TTVT
VDLC
DIRG
RGKP
WNHR
SYAR
WQWS
QCTE
FDRC
SRVS
GSRC
TKGP
SNSN
YFGG
ATER
LGNT
AVCS
NQPQ
KNTS
TITW
RWFL
HSDT
QWDK
HGTV
HEKC
HQGC
THPE
PFFR
TGIA
FLPY
HFRW
YGTG
VSKA
PSQC
QMFE
THRL
TKEA
PYSS
LSDS
NHCL
QSLF
AAII
IPST
DAEG
NYPV
LDLR
VQSH
QAPT
PPRL
YASC
CLPV
DRIA
DWTG
SCMT
PHSY
AQCN
QVPP
VGTA
QQHL
QPDF
QVHW
FSKR
ECSG
LVNW
TQFT
NVSM
CEYG
QTRR
DRVG
FAVR
KDKK
WTRI
SGTE
DGCS
PCLC
STFK
YRNR
SNYV
LRVE
GDTA
HKNS
CPSY
RNEM
TAHV
EQVG
RDNT
QKTI
AYPI
VEHV
KKRV
HAGW
CGWR
KRIA
NVHW
FMKR
HDQG
STYP
KVMS
TDKS
PASN
RILV
QAGE
FMNF
ADSI
LTLS
AGPV
AHIL
ALPC
TKQR
ESHV
HAPH
HFGL
QLEI
AGWP
IVVL
DTHY
PRIQ
AAAN
MGFR
GRYR
EDHT
EKIT
SPGM
QTSS
RPNM
LHMY
GQRY
CFTG
SVRG
AHAG
VFFS
CENL
SCYT
CKHS
CTLR
CQIC
SIFM
GPMG
GSPW
QNEY
HCID
YNGR
PQNC
FVKT
VACC
LICT
ICGG
QDSQ
SEPV
HSVS
VHRG
FAKG
RCLQ
KEKV
YNIR
MDIE
WTVG
QWWL
QMQS
VFVG
PTVL
QYDT
TRCF
TPCS
LASR
SQTG
WALI
PRRV
HNKV
YPVT
KYTW
YKKI
ASTQ
CFYR
RMVE
ATDF
LAPI
GMHR
HSEN
PKRI
PFMF
INSR
NKDR
PHLW
VVTF
VWFR
KNML
NDNF
WPQR
RSFP
PRFG
AYRN
DRHM
PIHT
QWHF
PPVI
LRCE
QHHV
FAVT
LPAR

one-hybrid fitness for binding parS DNA, 0.281:
RQEH

one-hybrid fitness for binding parS DNA, 0.24:
RNRW

one-hybrid fitness for binding parS DNA, 0.952:
RKWG

one-hybrid fitness for binding parS DNA, 0.951:
RHQC

one-hybrid fitness for binding parS DNA, 0.998:
RLQC

one-hybrid fitness for binding parS DNA, 0.295:
RKFN
